Source: ChEMBL document CHEMBL4888484, “Replenishing the malaria drug discovery pipeline: Screening and hit evaluation of the MMV Hit Generation Library 1 (HGL1) against asexual blood stage Plasmodium falciparum ,using a nano luciferase reporter read-out” (2022)
Hit rate of the full screen: of about 150,000 compounds, about 540 (0.36%) showed an effect of 50% or more. The list shows a part of the results.

The compounds below were run on Plasmodium falciparum (assay: Primary screen in NF54 nanoGlo assay, in single point, at 2uM, 72h; a lower Z score goes with more inhibition). Conditions: timepoint 72 hour.
Format: functional, Erythrocyte

Structure (SMILES)	% Inhibition [%]	Z score
O=C(c1ccc(S(=O)(=O)N2CCOCC2)cc1)N1CCCCC1	-8	1.08
CC[C@H]1CCCCN1C(=O)COc1cc(C(F)(F)F)c2c(C)nn(C)c2n1	-10	1.08
O=C(Nc1nc(C2CC2)cs1)N1CC(CN2C(=O)COC2=O)C1	9	-1.21
Cn1c([C@@H]2CCCO2)nn(CC2CC2)c1=O	-15	2.19
COc1ccc(C(=O)NCC(C)C)cc1Cl	-14	1.95
Cc1cc([C@@H](C#N)c2ccc(Cl)cc2)c(Cl)cc1NC(=O)CCCOc1ccccc1	-2	0.47
CCCNC(=O)N1CCC(N2CC3(CCCC3)[C@H]2c2ccccc2)CC1	-7	1.05
NC(=O)c1ccc(C(=O)OC2CCCCCC2)cn1	3	-0.42
CC(C)c1nc(Cn2cnccc2=O)no1	1	-0.07
O=C(N1CCO[C@H](c2ccccc2)C1)C1(c2ccccc2)CCOCC1	-7	0.91
CCc1noc(CC)c1CC(=O)N1C[C@H](OC)C[C@H]1c1nc(C)n[nH]1	-12	1.67
Cc1cccc(CN(Cc2ccccn2)C(=O)c2cc(C)no2)c1	-11	1.37
OC[C@H]1CCCN(CCNc2nccc3cccnc23)C1	-5	0.82
CCN1C(=O)c2c(C(=O)NCCc3ccccc3)ncn2C[C@@]1(C)C(=O)NC1CCCC1	-6	1.03
CCc1cc2c3c([nH]c2cc1S(=O)(=O)NCCN1CCCCCC1)CCCC3=O	-5	0.83
CCCn1ncc(C(=O)N(CCOC)CC2CC2)c1C	2	-0.36
O=C1CC[C@@]2(CCCN(C(=O)c3ncccc3O)C2)CN1Cc1cccnc1	-5	0.71
O=C(CN1C(=O)CN(c2ccccc2)C1=O)Nc1cccc2ccccc12	1	-0.07
CN(C(=O)Nc1ccccc1OCc1ccccc1)[C@@H]1CCCC[C@@H]1O	-8	1.45
O=C([C@@H]1C[C@@H]2OCC[C@@H]2N1C(=O)c1ccc(Oc2ccccc2)o1)N1CCCC1	6	-0.87
Cc1c(CC(=O)N[C@H]2CCOC2)c2c(n1CCc1ccccc1)CCCC2=O	-6	1.07

Structure (SMILES)	% Inhibition [%]	Z score
C[C@H]1CCCN(C(=O)c2cnn3c(-c4cccnc4)ccnc23)CC1	-5	0.61
O=C(c1coc(COc2cccc(C(F)(F)F)c2)n1)N1CCC[C@H](CO)C1	0	-0.04
O=C(Cc1ccc2[nH]c(=O)[nH]c2c1)N1CCOC[C@@H]1CC1CCC1	2	-0.19
O=C1CCC(=O)N1c1nc2n(n1)[C@H](c1ccccc1Cl)C=C(c1ccccc1)N2	-15	1.64
Cc1nc2ccc(C(=O)N3C[C@@H]4c5ccccc5OC[C@]4(CO)C3)cc2o1	0	-0.05
COc1ccc(C)cc1N[C@@H](C)C(N)=O	16	-1.87
Cc1cc(C(=O)N2CC[C@](C)(O)[C@H](Cc3ccccc3)C2)[nH]n1	-10	1.05
CCC(CC)(C(=O)NCc1nccs1)C(=O)OC(C)(C)C	-3	0.5
O=C(CCc1nnc[nH]1)Nc1ccc(-c2cc3ccccc3o2)cc1	-4	0.89
CCn1c(CC2CCN(Cc3cc4ccccc4[nH]3)CC2)nn(C)c1=O	-6	0.53
CC(C)C(CNC(=O)N1CC[C@](C)(O)C1)C(C)C	-5	0.59
COCCOc1ccccc1C(=O)N1CCN(C(=O)OC(C)(C)C)CC12CCCCC2	-7	1.54
O=C(Nc1cccc2cccnc12)C(c1ccccc1)c1ccccc1	-9	1.44
Cn1cc(Cl)cc1C(=O)N[C@@H](CCO)C1CCOCC1	-5	0.77
O=C(Nc1cccnc1)N1CC[C@H](OCCCc2ccccc2)C1	-1	0.14
COc1cccc(CC(=O)N2CC[C@H](Cc3ncc(C)n3C(C)C)C2)c1	-2	0.22
Cc1cncnc1C1CCN(C(=O)c2ccc(-n3cnnn3)cc2O)CC1	-14	1.39
Cc1ccc2cnn(C(=O)Nc3ccc4c(c3)OCO4)c2c1	-8	1.56
COc1ccc(C2CC(c3cccc(Br)c3)N(Cc3ccc(F)cc3)c3nnnn32)cc1 (configuration not stated)	0	0.03
CC(C)(C)OC(=O)NCC=CCNS(=O)(=O)c1ccc(Cl)cc1	3	-0.57
